{
  "source": "patent US6831086B1",
  "about": "“Process for the inactivation of viruses with the aid of acridine derivatives” (ZLB Behring GmbH, priority 1994, dated 2004)",
  "key": {"PPV": {"test_system": "PPV", "experiment": "Inactivation of PPV, infectiousness titration", "format": "cell-based, Porcine parvovirus", "conditions": "Acriflavine 0.001 mg/ml, 37° C."}, "[1]": {"test_system": "cryoprotein solution after Al(OH)3 + QAE treatment", "experiment": "Clotting activity of cryoprotein solution after virus inactivation", "format": "biochemical", "conditions": "3 hours 45° C."}, "CPV": {"test_system": "CPV", "experiment": "Inactivation of CPV in protein solutions, infectiousness titration", "format": "cell-based, Canine parvovirus", "conditions": "Acriflavine 0.001 mg/ml, 37° C."}, "BPV": {"test_system": "BPV", "experiment": "Inactivation of BPV, infectiousness titration", "format": "cell-based, Bovine parvovirus", "conditions": "for Inactivation of the naked virus BPV, in words: Table 3, 37° C."}, "PI3 virus": {"test_system": "PI3 virus", "experiment": "Inactivation of PI3 virus, infectiousness titration", "format": "cell-based, Bovine parainfluenza 3 virus"}, "BVDV": {"test_system": "BVDV", "experiment": "Inactivation of BVDV, infectiousness titration", "format": "cell-based, Bovine viral diarrhoea virus", "conditions": "37° C."}, "Reo 3": {"test_system": "Reo 3", "experiment": "Inactivation of Reo 3 in protein solution, infectiousness titration", "format": "cell-based, Reovirus type 3", "conditions": "Beriate + Reo 3, Ethacridine lactate 0.3 mg/ml, 45° C."}, "IBRV": {"test_system": "IBRV", "experiment": "Inactivation of IBRV, infectiousness titration", "format": "cell-based, Infectious bovine rhinotracheitis virus", "conditions": "BACI 0.01 mg/ml, 37° C., 2 hours, EME medium"}, "[2]": {"conditions": "BPV, Acriflavine 0.001 mg/ml, 37° C., 2 hours, EME medium"}, "[3]": {"conditions": "Beriate + BPV, Acriflavine 0.001 mg/ml, 37° C., 0 h"}, "[4]": {"conditions": "Beriate + BPV, Acriflavine 0.001 mg/ml, 37° C., 1 h"}, "[5]": {"conditions": "Beriate + BPV, Acriflavine 0.001 mg/ml, 37° C., 2 h"}, "[6]": {"conditions": "BVDV, Acriflavine 0.001 mg/ml, 2 hours, EME medium"}, "[7]": {"conditions": "PI3V, BACI 0.01 mg/ml, 37° C., 2 hours, EME medium"}},
  "data": [
    {"molecule": "3,6-diamino-10-methylacridinium, chloride and 3,6-acridineidiamine [Acriflavine]", "values": [
      {"measurement": "Titer reduction", "setting": "PPV; Beriplex + PPV, 0 h", "result": 0, "unit": "log10/ml"},
      {"measurement": "Titer reduction", "setting": "PPV; Beriplex + PPV, 1 h", "result": 2.6, "unit": "log10/ml"},
      {"measurement": "Titer reduction", "setting": "PPV; Beriplex + PPV, 2 h", "result": "≧3.1 log10/ml"},
      {"measurement": "Titer reduction", "setting": "PPV; Haemate + PPV, 0 h", "result": 0, "unit": "log10/ml"},
      {"measurement": "Titer reduction", "setting": "PPV; Haemate + PPV, 1 h", "result": 2.2, "unit": "log10/ml"},
      {"measurement": "Titer reduction", "setting": "PPV; Haemate + PPV, 2 h", "result": 3.6, "unit": "log10/ml"},
      {"measurement": "Titer reduction", "setting": "PPV; Venimmun + PPV, 0 h", "result": 0, "unit": "log10/ml"},
      {"measurement": "Titer reduction", "setting": "PPV; Venimmun + PPV, 1 h", "result": "≧2.4 log10/ml"},
      {"measurement": "Titer reduction", "setting": "PPV; Venimmun + PPV, 2 h", "result": "≧2.4 log10/ml"},
      {"measurement": "Activity (clotting activity)", "setting": "[1]; A 0.001 mg/ml", "result": 4.4, "unit": "IU/ml"},
      {"measurement": "Activity (clotting activity)", "setting": "[1]; A 0.01 mg/ml", "result": 3.9, "unit": "IU/ml"},
      {"measurement": "Activity (clotting activity)", "setting": "[1]; A 0.03 mg/ml", "result": 4.2, "unit": "IU/ml"},
      {"measurement": "Titer reduction", "setting": "CPV; FCS + CPV, 0 h", "result": 0, "unit": "log10/ml"},
      {"measurement": "Titer reduction", "setting": "CPV; FCS + CPV, 1 h", "result": 1.7, "unit": "log10/ml"},
      {"measurement": "Titer reduction", "setting": "CPV; FCS + CPV, 2 h", "result": 2.6, "unit": "log10/ml"},
      {"measurement": "Titer reduction", "setting": "CPV; Venimmun + CPV, 0 h", "result": 0.5, "unit": "log10/ml"},
      {"measurement": "Titer reduction", "setting": "CPV; Venimmun + CPV, 1 h", "result": 2.0, "unit": "log10/ml"},
      {"measurement": "Titer reduction", "setting": "CPV; Venimmun + CPV, 2 h", "result": 2.9, "unit": "log10/ml"},
      {"measurement": "Virus inactivation", "setting": "BPV; [2]", "result": "≧3.9 log10/ml"},
      {"measurement": "Virus titer found", "setting": "BPV; [2]", "result": "≦1.5 log10/ml"},
      {"measurement": "Titer reduction", "setting": "BPV; [3]", "result": 0, "unit": "log10/ml"},
      {"measurement": "Treatment titer", "setting": "BPV; [3]", "result": 5.4, "unit": "log10/ml"},
      {"measurement": "Titer reduction", "setting": "BPV; [4]", "result": "≧3.5 log10/ml"},
      {"measurement": "Treatment titer", "setting": "BPV; [4]", "result": "≦1.5 log10/ml"},
      {"measurement": "Titer reduction", "setting": "BPV; [5]", "result": "≧3.5 log10/ml"},
      {"measurement": "Treatment titer", "setting": "BPV; [5]", "result": "≦1.5 log10/ml"},
      {"measurement": "Treatment titer", "setting": "BPV; Horse serum + BPV, Acriflavine 0.001 mg/ml, 37° C., 0 h", "result": 5.4, "unit": "log10/ml"},
      {"measurement": "Treatment titer", "setting": "BPV; Horse serum + BPV, Acriflavine 0.001 mg/ml, 37° C., 1 h", "result": "≦1.5 log10/ml"},
      {"measurement": "Treatment titer", "setting": "BPV; Horse serum + BPV, Acriflavine 0.001 mg/ml, 37° C., 2 h", "result": "≦1.5 log10/ml"},
      {"measurement": "Inactivation of the naked virus BPV, in words", "setting": "BPV; 2 hours", "result": "inactivated"},
      {"measurement": "Virus titer found", "setting": "PI3 virus; PI3V, Acriflavine 0.001 mg/ml, 37° C., 2 hours, EME medium", "result": 3.2, "unit": "log10/ml"},
      {"measurement": "Virus inactivation", "setting": "BVDV; [6]", "result": 3.7, "unit": "log10/ml"},
      {"measurement": "Virus titer found", "setting": "BVDV; [6]", "result": 2.5, "unit": "log10/ml"},
      {"measurement": "Titer reduction", "setting": "BVDV; Beriate + BVDV, Acriflavine 0.001 mg/ml, 0 h", "result": 0, "unit": "log10/ml"},
      {"measurement": "Titer reduction", "setting": "BVDV; Beriate + BVDV, Acriflavine 0.001 mg/ml, 1 h", "result": "≧3.5 log10/ml"},
      {"measurement": "Titer reduction", "setting": "BVDV; Beriate + BVDV, Acriflavine 0.001 mg/ml, 2 h", "result": "≧3.5 log10/ml"},
      {"measurement": "Titer reduction", "setting": "BVDV; Horse serum + BVDV, Acriflavine 0.001 mg/ml, 0 h", "result": 0, "unit": "log10/ml"},
      {"measurement": "Titer reduction", "setting": "BVDV; Horse serum + BVDV, Acriflavine 0.001 mg/ml, 1 h", "result": "≧3.6 log10/ml"},
      {"measurement": "Titer reduction", "setting": "BVDV; Horse serum + BVDV, Acriflavine 0.001 mg/ml, 2 h", "result": "≧3.5 log10/ml"},
      {"measurement": "Titer reduction", "setting": "BVDV; Venimmun + BVDV, Acriflavine 0.001 mg/ml, 0 h", "result": 0, "unit": "log10/ml"},
      {"measurement": "Titer reduction", "setting": "BVDV; Venimmun + BVDV, Acriflavine 0.001 mg/ml, 1 h", "result": 1.3, "unit": "log10/ml"},
      {"measurement": "Titer reduction", "setting": "BVDV; Venimmun + BVDV, Acriflavine 0.001 mg/ml, 2 h", "result": 4.4, "unit": "log10/ml"}
    ]},
    {"molecule": "CCOc1ccc2nc3cc(N)ccc3c(N)c2c1", "note": "[Ethacridine lactate]", "values": [
      {"measurement": "Titer reduction", "setting": "Reo 3; 0 h", "result": 0.3, "unit": "log10/ml"},
      {"measurement": "Treatment titer", "setting": "Reo 3; 0 h", "result": 5.1, "unit": "log10/ml"},
      {"measurement": "Titer reduction", "setting": "Reo 3; 1 h", "result": "≧3.2 log10/ml"},
      {"measurement": "Treatment titer", "setting": "Reo 3; 1 h", "result": "≦1.5 log10/ml"},
      {"measurement": "Titer reduction", "setting": "Reo 3; 2 h", "result": "≧3.2 log10/ml"},
      {"measurement": "Treatment titer", "setting": "Reo 3; 2 h", "result": "≦1.5 log10/ml"}
    ]},
    {"molecule": "Benzalkonium chloride [BACI]", "values": [
      {"measurement": "Activity (clotting activity)", "setting": "[1]; BACI 0.05 mg/ml", "result": 6.1, "unit": "IU/ml"},
      {"measurement": "Activity (clotting activity)", "setting": "[1]; BACI 0.1 mg/ml", "result": 6.9, "unit": "IU/ml"},
      {"measurement": "Virus inactivation", "setting": "BPV; BPV, BACI 0.01 mg/ml, 37° C., 2 hours, EME medium", "result": 0, "unit": "log10/ml"},
      {"measurement": "Inactivation of the naked virus BPV, in words", "setting": "BPV; 2 hours", "result": "not"},
      {"measurement": "Virus titer found", "setting": "PI3 virus; BACI 0.0125 mg/ml, 0-0.03 h, 37° C., EME medium", "result": 6.9, "unit": "log10/ml"},
      {"measurement": "Virus titer found", "setting": "PI3 virus; BACI 0.0125 mg/ml, 1 h, 37° C., EME medium", "result": 5.5, "unit": "log10/ml"},
      {"measurement": "Virus titer found", "setting": "PI3 virus; BACI 0.025 mg/ml, 0-0.03 h, 37° C., EME medium", "result": 6.0, "unit": "log10/ml"},
      {"measurement": "Virus titer found", "setting": "PI3 virus; BACI 0.025 mg/ml, 1 h, 37° C., EME medium", "result": "≦1.5 log10/ml"},
      {"measurement": "Virus titer found", "setting": "PI3 virus; BACI 0.05 mg/ml, 1 h, 37° C., EME medium", "result": "≦1.5 log10/ml"},
      {"measurement": "Virus titer found", "setting": "PI3 virus; BACI 0.1 mg/ml, 0-0.03 h, 37° C., EME medium", "result": "≦1.5 log10/ml"},
      {"measurement": "Virus titer found", "setting": "PI3 virus; BACI 0.1 mg/ml, 1 h, 37° C., EME medium", "result": "≦1.5 log10/ml"},
      {"measurement": "Virus inactivation", "setting": "PI3 virus; [7]", "result": "≧4.1 log10/ml"},
      {"measurement": "Virus titer found", "setting": "PI3 virus; [7]", "result": "≦1.5 log10/ml"},
      {"measurement": "Inactivation of PI3V, in words", "setting": "PI3 virus; Table 3, 37° C., 2 hours", "result": "inactivated"},
      {"measurement": "Virus titer found", "setting": "BVDV; BVDV, BACI 0.01 mg/ml, 2 hours, EME medium", "result": 2.3, "unit": "log10/ml"},
      {"measurement": "Virus inactivation", "setting": "IBRV", "result": "≧3.6 log10/ml"},
      {"measurement": "Virus titer found", "setting": "IBRV", "result": "≦1.5 log10/ml"}
    ]}
  ]
}
